± gives the standard deviation of the averaged measurements. Some of the results follow.

For the test, the system named is PfAP2-G AP2 domain (GST-tagged). The test can be described thus: gcPBM binding intensity (ln(normalized median fluorescence intensity)); higher = stronger DNA binding. Put shortly: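 Using an Agilent 4 × 180k array, primer-extended double-stranded 36-bp intergenic genomic probes and negative controls were exposed for 1 h to GST-fused P. falciparum DNA-binding domains expressed in E. coli. Binding was carried out in 1× PBS with 1% milk, 0.2 mg/ml BSA, 0.5% salmon testes DNA and 0.03% Triton X-100, and protein was detected with Alexa488 anti-GST antibody and a 488 nm scan. Binding intensity is the highest Masliner-normalised natural-log median intensity across replicate spots of either probe orientation.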
On to “AAATATATATATATTACACACTATATATTTATTTAT [CACACA_site681]”, for which the “gcPBM binding intensity (ln)” value came to 9.67 ± 0.16.
Next, “CATATCAAAAAAAAATGTACACGTATATACAATACA [XGTACX_site2660]”: 11.4 ± 0.76; “TTTTAAAATAAAAAAATAAAAAAAGGGGAAAAAAAA [CACACA_negctrl_site847]”: 9.6 ± 0.33.
The value for “ATAACTAAATTATATTGTACAAAATAATTATATATT [XGTACX_site1188]” was 10.7 ± 0.3; that for “ATATACTTATATATTGCACACATCTAATATTTTGAA [CACACA_site3165]” was 10.1 ± 0.23.
Next, “TATAATATGTTTGATGGTACACGTAAACACCTTGCA [XGTACX_site1643]”: 11.1 ± 0.68; “TTTAATCAACAAAATCTACACACTAATATGAAATAT [CACACA_site9250]”: 9.81 ± 0.028.
“ATACACGTTTTACAATGTACAGAAAGTATACATAAT [XGTACX_site4585]”: the “gcPBM binding intensity (ln)” value came out at 10.8 ± 0.36.
On to “AAGAATTTTCGATTTGCACACATTTGTAAAATAAAA [CACACA_site2354]”, for which the “gcPBM binding intensity (ln)” value was 10.1 ± 0.23.
Next, “GTATTTTTTTTCTTTTGTACATATATATAAAGAATA [XGTACX_site4569]”: 11.1 ± 0.71; “TATTATATATATAAATGTACATATTATTTTTCTTTT [XGTACX_site8670]”: 11.1 ± 0.51; “CCCACAATGGTTTATATACACACTGTTGCAAATTCT [CACACA_site3066]”: 10.18 ± 0.092.
“ATTGAAAAAATACAATGTACATAGTAATACAAAGAA [XGTACX_site4142]”: the “gcPBM binding intensity (ln)” value stood at 10.8 ± 0.43.
The value for “AATTATACTCACGTTACACACACACTAGATATATAT [CACACA_site6133]” was 10.29 ± 0.099; that for “TTTTTTTTTTTTTTTTGTACATATATATAAAAAATA [XGTACX_site2772]” was 10.8 ± 0.84; that for “TAATATTACATTTATTGTACTTTGTTTTTATTTTAT [XGTACX_site1605]” was 11.1 ± 0.62.
The value for “AAAAAAAAAAATTGCACACAAAAAAAAAAAAAAAAA [CACACA_site2073]” was 10.1 ± 0.51; that for “TTAAAAATTAAAAGTAGTACATATAATATAAACATT [XGTACX_site424]” was 11.5 ± 0.76.
Next, “TAATACTTAATGAACACATGCACATATACATAGTAT [TGCATGCA_site496]”: 10.3 ± 0.2; “TGTTTCTAAGAATTTACACACAAAATATTTCTACAT [CACACA_site7846]”: 9.91 ± 0.11.
For “ATAATTATACAAAAGCGTACACGATATAAATCTACG [XGTACX_site8115]”, the “gcPBM binding intensity (ln)” value is 11.6 ± 0.95.
Next, “CTTAAATCCATAATATGTACTTAAAAAGAAAAAATA [XGTACX_site4765]”: 11.3 ± 0.68; “AGACAATTTTTTAGTACACACATATAGATATATAAA [CACACA_site6832]”: 11.4 ± 1.
Next, “TTATAAAAAAAAAAAAAAAAAAAAACCAATATAATA [CACACA_negctrl_site968]”: 9.69 ± 0.12; “TTTATTCTAAAATATTAAAAATGATTTGTTTTTTCA [CACACA_negctrl_site1751]”: 9.51; “GTATTATAAAAAGGAAGTACATATATACATATTATA [XGTACX_site1271]”: 11.3 ± 0.75.
The value for “ATATGAACATTAAAAAAGTAAGGTATTCTCCCCTCT [CACACA_negctrl_site1299]” was 10.06 ± 0.092; that for “AAATAAAGAAATGCAAGTACATACTAAACTAATCCA [XGTACX_site1209]” was 11.2 ± 0.59.
For “ATTTTCCCTAGAATATGTACACATAGTAAATATTAT [XGTACX_site7499]”, the “gcPBM binding intensity (ln)” value worked out at 11.4 ± 0.83.
Next, “ATATATAAATATGAAACACACATTCTATTTAATTCG [CACACA_site1450]”: 9.76 ± 0.028; “CAGATAAATAAACACACACACACATATATATATATA [CACACA_site9311]”: 10.2 ± 0.59.
Next, “TCTTAAATTATGATAAAATATAATAAATAAATAAAT [CACACA_negctrl_site1520]”: 9.485 ± 0.078; “TTGTTTTATACATAGTGTACATATAAAAATTTTTTT [XGTACX_site7549]”: 11.4 ± 0.88; “ATATATATTATAATCTGTACATAAATATATAATAAA [XGTACX_site5425]”: 11 ± 0.64.
With “TATGTTTCTATATATACATGCAAGAAGAAATGTACT [TGCATGCA_site891]”, the “gcPBM binding intensity (ln)” value amounted to 10.2 ± 0.12.
Next, “ATGTCACAATTTTTCACACACAAAATTTATATACAT [CACACA_site2030]”: 10.2 ± 0.12; “AAAAAAAAAAAAGAAAAATATATATATAAATAAATA [GTGCAC_negctrl_site569]”: 9.52 ± 0.028; “ATATGTACAAATTATACACACATGTACAATTATATA [CACACA_site1253]”: 11.3 ± 0.79.
The value for TTACATACAATTGGTGTGCACATATATATATATATA was 10.7 ± 0.56; that for “GTTAATATTTTTGGGGGTACTTAAAAAAAAAAAAAA [XGTACX_site1477]” was 11.7 ± 0.91; that for “AATTTAAAAAATAATTGTACAAAAAAAAAAAATCAG [XGTACX_site4576]” was 11.2 ± 0.81.
The value for “GAATATTAATTCAAGTGTACAAATATATATATAATT [XGTACX_site5103]” was 11 ± 0.47; that for “CAAAAGGATAGGCACACACACACACCGATATATATA [CACACA_site8685]” was 10.3 ± 0.28; that for “ATAAAAATTTATATATGTACTTAATTTTTAATTTTT [XGTACX_site7482]” was 11.3 ± 0.99.

The record behind these values is the supplement of paper PMC11417369.
